# Source: PubChem BioAssay AID504332 (National Center for Advancing Translational Sciences (NCATS), 2011)
# The campaign covered roughly 350,000 compounds. About 31,000 (8.9%) were called active. Inconclusive results, whose numbers are uncertain, are shown with a selection of clear calls. Calls come from the whole dose curve; as a rule, active = well fitted inhibition curve with a large enough effect; inconclusive = small, poorly fitted or top-dose-only effect; inactive = no such curve, though single readings can be large or run the other way. Potencies of inconclusive entries are doubtful fits and often do not repeat.
# Target: Histone-lysine N-methyltransferase EHMT2 (Homo sapiens) (UniProt Q96KQ7)
# Sequence of UniProt Q96KQ7 (Q96KQ7 whole entry, looked up): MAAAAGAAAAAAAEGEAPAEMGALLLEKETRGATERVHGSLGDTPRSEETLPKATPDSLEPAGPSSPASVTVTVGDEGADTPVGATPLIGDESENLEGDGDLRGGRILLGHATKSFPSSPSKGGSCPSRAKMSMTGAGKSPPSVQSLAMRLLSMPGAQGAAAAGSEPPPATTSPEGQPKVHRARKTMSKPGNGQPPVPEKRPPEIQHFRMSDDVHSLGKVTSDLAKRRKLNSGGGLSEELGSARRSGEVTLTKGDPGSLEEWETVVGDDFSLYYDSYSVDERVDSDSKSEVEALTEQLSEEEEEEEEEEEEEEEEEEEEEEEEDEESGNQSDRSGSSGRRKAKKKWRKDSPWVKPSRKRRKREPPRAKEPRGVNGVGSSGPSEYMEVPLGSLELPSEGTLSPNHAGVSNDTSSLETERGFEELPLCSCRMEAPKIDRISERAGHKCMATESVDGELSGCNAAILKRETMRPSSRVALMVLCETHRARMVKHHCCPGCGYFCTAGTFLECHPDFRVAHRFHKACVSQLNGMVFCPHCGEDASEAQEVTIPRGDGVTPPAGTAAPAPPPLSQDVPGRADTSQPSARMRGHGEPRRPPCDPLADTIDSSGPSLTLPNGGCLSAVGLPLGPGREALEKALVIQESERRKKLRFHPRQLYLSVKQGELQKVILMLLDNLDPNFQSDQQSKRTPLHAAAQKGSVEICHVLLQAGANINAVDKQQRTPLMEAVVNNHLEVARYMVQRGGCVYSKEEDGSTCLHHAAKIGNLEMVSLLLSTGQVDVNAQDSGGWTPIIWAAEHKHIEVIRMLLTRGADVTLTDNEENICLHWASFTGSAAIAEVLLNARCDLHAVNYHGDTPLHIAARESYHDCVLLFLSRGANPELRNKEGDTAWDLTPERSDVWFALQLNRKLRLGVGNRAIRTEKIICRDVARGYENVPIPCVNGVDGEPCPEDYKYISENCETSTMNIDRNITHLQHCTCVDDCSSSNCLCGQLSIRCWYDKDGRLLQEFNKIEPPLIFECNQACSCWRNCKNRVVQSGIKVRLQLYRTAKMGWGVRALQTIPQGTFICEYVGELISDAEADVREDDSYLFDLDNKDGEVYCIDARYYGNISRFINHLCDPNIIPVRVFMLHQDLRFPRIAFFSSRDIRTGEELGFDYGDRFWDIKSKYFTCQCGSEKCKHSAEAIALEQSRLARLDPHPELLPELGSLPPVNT
# Experiment: qHTS Assay for Inhibitors of Histone Lysine Methyltransferase G9a; note: nearly all actives have a fitted effect of over 75% in size
# Conditions: G9a H3K9 monomethylation, AlphaScreen, 2 h; activity, negative = inhibition: at 59 µM (top of the series) unless noted
# Procedure, shortened: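 Chemiluminescent proximity detection of H3K9 monomethylation, read after 10 min bead incubation in the dark. Reaction: 20 nM G9a, 500 nM biotin-H3K9 peptide, 20 uM SAM cofactor, 2 h, room temperature, following 15 min enzyme-compound preincubation.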
# % is set by controls: 0 for no effect and ±100 for the full control effect; potency is the fitted concentration of half-maximal effect; tags give direction and shape of the fitted curve.
SMILES,"activity, negative = inhibition",Potency
Fc1cccc(Cn2cc(C(=S)N3CCCCC3)c3ccccc32)c1,inconclusive: -111% [inhibitor],
COc1ccc(C(=O)Nc2cccc(/C=C(\CCC(=O)O)c3nc4ccccc4s3)c2)cc1,inactive: -2.67% [at 12.7 µM],
c1ccc(COc2ccc(CNCc3cccs3)cc2)cc1,,inactive
Cc1ccc(C(=O)OCC(=O)Nc2ccc(N(C)C)cc2)cc1NC(=O)c1ccco1,,"inconclusive: 2 µM [inhibitor, full curve, poor fit]"
Cn1c(SCC(=O)NCc2ccccc2)nc2ccccc21,,"inconclusive: 0.0891 µM [inhibitor, full curve, poor fit]"
Cc1sc2ncnc(N/N=C/c3ccccc3O)c2c1C,,inactive
COc1cc(C(=O)NCCCc2ccccc2)cc(OC)c1OC,inactive: 19.4% [at 0.501 µM],
COc1ccc(C(C)=O)cc1CC(=O)Nc1ccc2c(c1)CCC2,,"inconclusive: 100 µM [inhibitor, single point]"
O=C(Cn1c(C(F)(F)F)nc2ccccc21)Nc1ccccc1N1CCOCC1,,"inconclusive: 28.2 µM [inhibitor, single point]"
CCC(C)NS(=O)(=O)c1ccc(NC(=O)c2ccc([N+](=O)[O-])cc2Cl)cc1 (configuration not stated),,"inconclusive: 79.4 µM [inhibitor, single point]"
COc1cccc(-c2nnc3sc(-c4cccs4)nn23)c1,,"inconclusive: 89.1 µM [inhibitor, single point]"
O=S(=O)(c1cc(Cl)ccc1Cl)N1CCN(Cc2ccc3c(c2)OCO3)CC1,,inactive
Cc1cc(C)c2sc(N3CCN(C(=O)c4ccc(N(C)C)cc4)CC3)nc2c1,,active: 22.4 µM
COc1ccccc1N1CCN(S(=O)(=O)c2c(C)nc3sccn3c2=O)CC1,,inactive
Cc1occc1C(=O)NCc1ccc2c(c1)OCO2,inactive: 11% [at 12.7 µM],
Cc1c(C(=O)OCC(=O)N2CC(C)OC(C)C2)oc2ccc(Br)cc12 (configuration not stated),,"inconclusive: 56.2 µM [inhibitor, partial curve, poor fit]"
Clc1ccc(CN2CCCCCCC2)cc1,,active: 7.08 µM
COc1cc(CNC2CCCCC2OC)cc(OC)c1 (configuration not stated),,"inconclusive: 10 µM [inhibitor, full curve, poor fit]"
O=c1[nH]c(SCc2ccccc2)nnc1-c1ccccc1,,inactive
CCOCCCn1c(=S)[nH]c2cc(C(=O)NCCCN(CC)CC)ccc2c1=O,,active: 8.91 µM
Cc1cccc(C)c1NC(=O)N1CCCC1C(=O)Nc1ccc(-n2cnnn2)cc1 (configuration not stated),,inactive
CC(C)c1nn2c(=O)cc(COC(=O)c3ccco3)nc2s1,,inactive
CC(OC(=O)c1ccc(F)c(S(=O)(=O)N2CCOCC2)c1)C(=O)NC1CCCC1 (configuration not stated),,"inconclusive: 89.1 µM [inhibitor, single point]"
CC(C)c1ccc(NC(=O)CNCC(c2ccccc2)N(C)C)cc1 (configuration not stated),,active: 35.5 µM

SMILES,"activity, negative = inhibition",Potency
COc1cccc(CN(C)C(=O)[C@@H](NC(=O)c2ccc(C)cc2)C(C)C)c1,,"inconclusive: 31.6 µM [inhibitor, single point]"
COc1cc(C)c(/C=C/C(C)=C/C=C/C(C)=C/C(=O)O)c(C)c1C,,"inconclusive: 14.1 µM [inhibitor, partial curve, poor fit]"
Cc1ccc(C(=O)N2CCN(c3cnn(C)c(=O)c3Cl)CC2)cc1,,inactive
COc1ccc(Cl)cc1NC(=O)CCCN1C(=O)CCC1=O,,inactive
Nc1nc(C(=O)N2CCOCC2)nn1S(=O)(=O)c1ccccc1,,active: 17.8 µM
Cc1ccccc1NC(=S)NC(NC(=O)C(C)(C)C)C(Cl)(Cl)Cl (configuration not stated),,"inconclusive: 14.1 µM [inhibitor, partial curve, poor fit]"
O=C(CCc1nc2ccccc2c(=O)[nH]1)NCCN1C(=O)S/C(=C\c2ccc(Cl)cc2Cl)C1=O,,"inconclusive: 44.7 µM [inhibitor, partial curve, poor fit]"
COc1cc(N=c2ssnc2Cl)cc(OC)c1OC,,"inconclusive: 1.12 µM [inhibitor, full curve, poor fit]"
COc1ccc(C(CNC(=O)CN2C(=O)NC3(CCCC3)C2=O)N(C)C)cc1 (configuration not stated),,inactive
CCS(=O)(=O)c1nc(S(=O)(=O)c2ccc(C)cc2)c(N2CCC3(CC2)OCCO3)s1,,inactive
Cc1ccc(OCC(=O)N2CCCc3ccccc32)cc1,,inactive
COc1ccc(N2C(=O)CC(N3CCN(C(=O)c4ccco4)CC3)C2=O)cc1 (configuration not stated),,active: 56.2 µM
CC[C@@]1(O)C[C@H](O[C@H]2C[C@@H](N(C)C)[C@@H](O[C@H]3C[C@@H](O)[C@@H](O[C@H]4CCC(=O)[C@@H](C)O4)[C@@H](C)O3)[C@@H](C)O2)c2c(cc3c(c2O)C(=O)c2c(O)cccc2C3=O)[C@H]1C(=O)OC,,"inconclusive: 1 µM [inhibitor, full curve, poor fit]"
O=C(CSc1nc(=O)[nH]c2c1CCCC2)NCc1ccccc1,,inactive
O=C(CSc1ncnc2c1oc1ccccc12)Nc1cccc(F)c1,,"inconclusive: 89.1 µM [inhibitor, single point]"
Cc1ccc(S(=O)(=O)N/N=C\c2ccc3c(c2)OCO3)cc1C,,"inconclusive: 15.8 µM [inhibitor, partial curve]"
Fc1ccc(C2=Nn3c(nnc3-c3n[nH]c4c3CCC4)SC2)cc1,,"inconclusive: 6.31 µM [inhibitor, full curve, poor fit]"
Oc1ccc(CNc2cccc(F)c2F)c2cccnc12,,active: 1.12 µM
Cc1cccc(-n2c(C)cc(/C=C3/C(=N)N4C(c5ccccc5)=CSC4=NC3=O)c2C)c1,,inactive
CC(=O)NNC(=O)c1[nH]c2ccc(Cl)cc2c1-c1ccccc1,inconclusive: -73.8% [inhibitor],
CCOC(=O)c1c(-c2ccc(C)cc2)csc1NC(=O)CCN1CC(C)OC(C)C1 (configuration not stated),,"inconclusive: 2.51 µM [inhibitor, full curve, poor fit]"
CCCOc1ccc(CNC(=S)Nc2ccccc2)cc1Cl,,inactive
O=C(NCCSc1ccccc1)c1cccnc1,,"inconclusive: 39.8 µM [inhibitor, partial curve, poor fit]"
